Each structure is given as a SMILES string. Hit rate of the full screen: of about 150,000 compounds, about 540 (0.36%) showed an effect of 50% or more. The list shows a part of the results.

The subject of the test is Plasmodium falciparum. Briefly: Primary screen in NF54 nanoGlo assay, in single point, at 2uM, 72h; a lower Z score goes with more inhibition. The conditions noted are these: timepoint 72 hour. Format: functional, Erythrocyte.
In general, % Inhibition refers to the relative decrease from the control value, in per cent. In the case of `Cc1cc2oc(-c3ccccc3)c(CC(=O)O)c2c(O)n1`, the “% Inhibition” value is on record as -9% and the Z score is on record as 1.14.

Turning to `CCCCN(Cc1cccnc1)C(=O)c1nc(C)[nH]c1C`, the “% Inhibition” value is -14% and the Z score was determined as 2.08.

For `Cn1cccc1C(=O)Nc1ccccc1CN1CCCCC1`, the “% Inhibition” value is listed as -10% and the Z score is 1.65.

With `COc1ccc(CC2=NO[C@H](C(=O)N3CCN(c4cccc(OC)c4)C(=O)C3)C2)cc1`, the “% Inhibition” value is recorded as -11% and the Z score came out at 1.37.

As for `FC(F)c1ccc(-c2noc([C@@H]3CC=CCC3)n2)cn1`, the “% Inhibition” value is recorded as -12% and the Z score came out at 1.93.

As for `CN(Cc1nc(-c2ccncc2)no1)c1ncnc2c1CCNCC2`, the “% Inhibition” value came out at 0% and the Z score is listed as -0.05.

On to `CCn1ccc2c(CN3CCO[C@H](C(=O)O)C3)cccc21`, for which the “% Inhibition” value is on record as -6% and the Z score came out at 0.6.

`Cn1cnc2c1CN(C(=O)c1ccoc1)CC2`: the “% Inhibition” value was -10% and the Z score came to 1.1.

Regarding `N#Cc1c([C@H]2CCCNC2)cc(-c2ccc(Cl)c(Cl)c2)nc1N`, the “% Inhibition” value is on record as -4% and the Z score came to 0.69.

Regarding `COc1cccc(C(=O)N2C[C@@H]3CC[C@H]2CN(Cc2ccccn2)C3)c1O`, the “% Inhibition” value is on record as -13% and the Z score is 1.3.

With `COc1ccccc1CN1CC[C@H]2CC(=O)Nc3ccccc3OCC[C@H]2C1`, the “% Inhibition” value amounted to 1% and the Z score is -0.14.

For `O=C(Nc1ccccc1OCCc1ccccn1)N[C@H]1CCCNC1=O`, the “% Inhibition” value is given as -2% and the Z score stood at 0.25.

As to `Cc1oc(C)c(C(=O)Nc2ccc(N(C)C)nc2)c1C`, the “% Inhibition” value is recorded as -23% and the Z score turned out to be 4.34.

In the case of `Cc1nccn1C1CN(C(=O)COc2ccc(F)cc2)C1`, the “% Inhibition” value was -7% and the Z score amounted to 0.94.

As for `Cc1ccc(C)c(C(=O)N2[C@@H]3CC[C@H]2CC(NC(=O)c2cnc(C)cn2)C3)c1` (stereo partly specified), the “% Inhibition” value was -10% and the Z score is 1.93.

On to `Cn1c(CN2CCCCCC2)nnc1C1CCN(C(=O)c2ccc[nH]2)CC1`, for which the “% Inhibition” value was -6% and the Z score was found to be 1.34.

Turning to `CC(C)(C)c1ccc(OCC2CC(F)(F)C2)nn1`, the “% Inhibition” value is -14% and the Z score is reported as 1.82.

Turning to `Cn1c(=O)n(CC2(CS(C)(=O)=O)CC2)c2ccccc21`, the “% Inhibition” value is listed as 6% and the Z score is -1.12.

In the case of `O=C(NCCCc1nc(=O)[nH][nH]1)c1coc(C2CCCCC2)n1`, the “% Inhibition” value is recorded as -7% and the Z score was 0.64.

Regarding `Cc1cscc1CNC(=O)N1CCS(=O)(=O)CC[C@@H]1C`, the “% Inhibition” value is 10% and the Z score is listed as -1.12.

With `CC1=CCN(C(=O)Nc2cc3c(cc2N(C)C)n(C)c(=O)n3C)CC1`, the “% Inhibition” value is given as -11% and the Z score turned out to be 1.06.

`O=C(O)c1ccccc1CCC(=O)N1CC[C@H](C2CCOCC2)C1`: the “% Inhibition” value is -16% and the Z score is on record as 1.92.

Turning to `Cc1ccccc1CN1CCC[C@H](N2CCOCC2)C1=O`, the “% Inhibition” value was -15% and the Z score is listed as 1.92.

With `O=C(c1ccc(O)cn1)N1C[C@H]2CCC[C@@H](C2)C1`, the “% Inhibition” value was 0% and the Z score is -0.01.

`C[C@@H]1CN(Cc2ccccc2)CCN1C(=O)NCc1nnn(C)n1`: the “% Inhibition” value is -16% and the Z score is 3.06.

For `COCCN(Cc1ccoc1)C(=O)NCCOc1ccccc1`, the “% Inhibition” value is on record as -17% and the Z score is reported as 2.21.

`CC(C)c1nccn1CC(=O)N(C)c1nccs1`: the “% Inhibition” value is -6% and the Z score is reported as 0.65.

Consider `Cc1cc(C(=O)N2CCC(CS(N)(=O)=O)CC2)c(C)n1C(C)C`, for which the “% Inhibition” value is given as -7% and the Z score is listed as 1.26.

With `COc1ccc(OC)c(N2C(=O)[C@@H]3C[C@H]2CN3C(=O)c2ccc3ccccc3n2)c1`, the “% Inhibition” value is on record as -17% and the Z score turned out to be 2.26.

Take `Cc1nc([C@@H]2CCCN2c2ncc(Br)cn2)no1`: the “% Inhibition” value is recorded as -29% and the Z score is recorded as 3.36.

For the compound `Cc1[nH]nc(CCC(=O)N2C[C@@H]3CC[C@H]2CN(Cc2ccccn2)C3)c1C`, the “% Inhibition” value is given as 1% and the Z score is given as -0.12.

Take `Cc1cc(=O)[nH]c(CNC(=O)COC[C@H]2CCCCO2)n1`: the “% Inhibition” value is -17% and the Z score is listed as 1.59.

On to `O=S(=O)(NC[C@H]1Cc2ccccc2CO1)c1cccnc1`, for which the “% Inhibition” value is given as -4% and the Z score was determined as 0.41.

On to `Cc1nc(-c2ccc(NC(=O)[C@@H]3Cc4ccccc4O3)cc2)co1`, for which the “% Inhibition” value is -6% and the Z score is given as 0.58.

For `CC(C)(Nc1ccccc1)C(=O)N1CCn2cncc2C1`, the “% Inhibition” value is listed as -6% and the Z score came out at 1.07.

Take `Cn1c(C(=O)N2CCC(C(=O)O)CC2)ccc1-c1ccccc1Br`: the “% Inhibition” value was -9% and the Z score turned out to be 1.13.

Regarding `Cc1nnc(NC(=O)NCc2cccnc2N2CCOCC2)s1`, the “% Inhibition” value came to 23% and the Z score is recorded as -3.07.

Consider `Cc1ccc(CN2CCC3(CCC(=O)N(C4CC4)C3)CC2)c(F)c1F`, for which the “% Inhibition” value worked out at 10% and the Z score is -1.35.

On to `COc1ccc(CNc2cncc(-c3nncn3C)c2)cc1OCc1cccnc1`, for which the “% Inhibition” value is -8% and the Z score amounted to 0.84.

With `COc1ccc([C@H](CNC(=O)Nc2ccc(S(N)(=O)=O)cc2)N2CCCCC2)cc1`, the “% Inhibition” value is reported as -8% and the Z score stood at 1.19.

On to `CCN(CC1CCOCC1)C(=O)CN1CCCCCC1=O`, for which the “% Inhibition” value is listed as 15% and the Z score is listed as -1.91.

`COc1ccc(NC(=O)N2CCN(CCn3c(-c4ccccc4)nc4cccnc43)CC2)cc1OC`: the “% Inhibition” value is recorded as 5% and the Z score is recorded as -0.59.

On to `CC#CCN1C(=O)N[C@@](CCc2ccccc2)(C2CCN(Cc3cccs3)CC2)C1=O`, for which the “% Inhibition” value is -4% and the Z score was 0.57.
